# In PubChem BioAssay AID445 (National Center for Advancing Translational Sciences (NCATS), 2006):
# In all, about 110,000 compounds went through this assay and about 40 (0.04%) were called active. The inconclusive results got no clear call from the source; some entries with a clear call stand among them for comparison. Calls come from the whole dose curve; as a rule, active = well fitted curve in the direction sought with a large enough effect in the signal ratio (not every such curve was filed as active); inconclusive = small, poorly fitted or top-dose-only effect, or a change in a side signal; inactive = flat fitted curve, though single readings scatter; the % refers to the signal ratio. A potency beside an inconclusive call is a rough fit, not a confirmed value.
# Assay: IkB Signaling;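 for IkBa stabilization activation: 0% = basal untreated cells and 100% = reference inhibitor full response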
# Conditions: ABC-DLBCL IkBa-CBG/CBR dual luciferase ratio (green luciferase fused to IkBa over red control in OCI-Ly3 lymphoma cells), 4 h; IkBa stabilization activation: at 57.1 µM (top of the series), scaled: untreated 0%, proteasome inhibitor 100% unless noted
# Outline: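 In this assay, an IκBα–CBG68 fusion accumulates when IKK-driven degradation is blocked; native CBR normalizes for cell number. OCI-Ly3 cells were treated 4 h with compound and doxycycline, then green and red light read after Chroma-Glo addition.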
# Potency is the fitted concentration of half-maximal effect.
Structure (SMILES),IkBa stabilization activation,Potency
Cc1ccc2cc(CN(Cc3ccco3)C(=O)c3ccccc3)c(=O)[nH]c2c1C,inconclusive: 2.21% [signal inhibitor],–
COc1ccc2[nH]cc(CCNC(=O)Nc3ccc(F)cc3)c2c1,inconclusive: -1.42% [signal inhibitor],–
Cc1ccc(C)c(N2CCN(C(=O)c3cc(S(=O)(=O)N4CCCCC4)cn3C)CC2)c1,inconclusive: 1.09% [signal inhibitor],–
CCOc1cc(N2CCOCC2)c(OCC)cc1NC(=O)CN1C(=O)NC(Cc2ccccc2)C1=O (stereo not given),inactive,–
O=C(c1ccc(CSc2nc3ccncc3n2Cc2ccccc2F)cc1)N1CCCCCC1,inconclusive: -0.448% [signal inhibitor],–
CC(C)S(=O)(=O)c1oc(-c2ccc(F)cc2)nc1S(=O)(=O)c1ccc(F)cc1,inconclusive: -2.56% [signal inhibitor],–
Cc1cccc(OCC(=O)N(Cc2cccc(Cl)c2)Cc2ccco2)c1C,inconclusive: -1.06% [signal inhibitor],–
COc1ccc2cc(-c3cn4c(n3)sc3cc(F)ccc34)c(=O)oc2c1,inactive,–
O=C1COc2ccc(C(=O)CSc3nnc(-c4cccs4)n3Cc3ccccc3)cc2N1,inconclusive: 4.76% [signal inhibitor],–
Cc1ccc(S(=O)(=O)c2nc(-c3ccccc3)oc2N2CCCCCC2)cc1,inconclusive: 3.01% [signal inhibitor],–
Cc1noc(/C=C/N(C)C)c1S(=O)(=O)N1CCCC(C(=O)NCc2ccc(F)cc2)C1 (stereo not given),inconclusive: 5.3% [signal inhibitor],–
O=C(Nc1ccccc1N1CCN(c2ccccc2)CC1)C1CCCCC1,inactive,–
COc1ccc(-c2nnc3sc(COc4ccc(C)cc4)nn23)cc1,inactive,–
Cc1ccccc1CSc1nc(-c2ccccc2)nc2c1Cc1c(CO)cnc(C)c1O2,inconclusive: -0.968% [signal inhibitor],–
Nc1c(C(=O)NC2CCCCC2)nsc1C(=O)OCC(=O)NC1CCCCC1,–,"inconclusive: 501 nM [signal inhibitor, full curve]"
COc1cccc(-c2cc(C(=O)NCc3ccccc3)[nH]n2)c1,inconclusive: 4.57% [signal inhibitor],–
CN1CCN(c2ncc3nc(-c4ccc(Cl)cc4)c(=O)n(CCC#N)c3n2)CC1,"inactive: -6.35% [at 11.4 µM, scaled: untreated 0%, proteasome inhibitor 100%]",–
CCOc1ccc(C(C)C)cc1S(=O)(=O)Nc1cccc(-c2ccc(N3CCOCC3)nn2)c1,inconclusive: -1% [signal inhibitor],–
Cc1ccc(NC(=O)C(Cc2ccccc2)NS(=O)(=O)c2ccc3c(c2)c(=O)n(C)c(=O)n3C)cc1 (stereo not given),inconclusive: 1.13% [signal inhibitor],–
CCN(C(=O)c1cc(S(=O)(=O)N2CCOCC2)cn1C)c1ccc(OC)cc1,inconclusive: 1.86% [signal inhibitor],–

Structure (SMILES),IkBa stabilization activation,Potency
CCCC(=O)Oc1c(Sc2ccc(Cl)cc2)c(C)nn1-c1ccccc1,inconclusive: 5.11% [signal inhibitor],–
Cc1cc(NC(=O)CSc2cn(CCNC(=O)c3ccc(F)cc3)c3ccccc23)no1,inconclusive: -0.928% [signal inhibitor],–
O=C(Nc1cccc(F)c1)C1CC(=O)N(c2ccc(Br)cc2)C1 (stereo not given),inconclusive: 1.56% [signal inhibitor],–
CC(C)(C)c1ccc(OCC(=O)N(Cc2ccco2)Cc2ccccc2F)cc1,inconclusive: -1.44% [signal inhibitor],–
COc1cc(OC)cc(-c2nnc(SCC(=O)N3CCC(C)CC3)o2)c1,inconclusive: 5.12% [signal inhibitor],–
CCC(C)NC(=O)C1CCN(C(=O)c2cc3sccc3n2Cc2ccc(Cl)cc2)CC1 (stereo not given),inconclusive: 7.88% [signal inhibitor],–
CCc1ccccc1N1CC(c2nc3ccccc3n2CC(C)C)CC1=O (stereo not given),inconclusive: 2.85% [signal inhibitor],–
Cc1ccc(C)c(S(=O)(=O)c2nnn3c2nc(N2CCCC2)c2sccc23)c1,inconclusive: 0.244% [signal inhibitor],–
O=C1CC(c2cccc(F)c2)C2=C(CCCC2=O)N1 (stereo not given),inconclusive: 13.9% [signal inhibitor],–
O=c1nc(-c2ccccc2)c2cc(Cl)ccc2[nH]1,inconclusive: 8.22% [signal inhibitor],–
O=C(CSc1nc2ccccc2c(=O)n1Cc1ccco1)N1CCCCCC1,inconclusive: -0.431% [signal inhibitor],–
O=C(c1ccco1)[C@@H]1[C@@H]2C(=O)N(c3ccccc3)C(=O)[C@@H]2C2c3ccccc3C=CN21 (stereo not given in full),–,"inconclusive: 1260 nM [signal inhibitor, full curve]"
CCCCCc1c(C)nc(Nc2nc(C)c3cc(OC)ccc3n2)[nH]c1=O,inactive,–
O=C(O)c1cc2c(cc1S(=O)(=O)O)[C@H]1[C@@H]([C@H]3[C@H]2[C@@]2(Cl)C(Cl)=C(Cl)[C@]3(Cl)C2(Cl)Cl)[C@]2(Cl)C(Cl)=C(Cl)[C@@]1(Cl)C2(Cl)Cl,"inactive: 1.67% [at 11.4 µM, scaled: untreated 0%, proteasome inhibitor 100%]",–
CC(C)(C)c1ccc(OCCSc2nc(-c3cccs3)nc3cc(=O)[nH]n23)cc1,inconclusive: -0.491% [signal inhibitor],–
COc1cccc2sc(Nc3nnc(-c4ccccc4Cl)o3)nc12,–,"inconclusive: 631 nM [rising, full curve]"
CC(=O)Nc1cccc(-c2nnc(SCC(=O)c3cc([N+](=O)[O-])ccc3Br)o2)c1,–,"inconclusive: 25100 nM [rising, single point]"
COc1cc(C(c2c(C)[nH][nH]c2=O)c2c(C)[nH][nH]c2=O)ccc1OC(=O)c1ccccc1F,inconclusive: 7.08% [signal inhibitor],–
CCCN1CCN(CCCNC(=O)c2cnn(-c3ccc(C)cc3)c2-n2cccc2)CC1,inactive,–
CC(=O)c1cccc(Nc2c3c(nc4nc(-c5cccs5)nn24)CCCC3)c1,inconclusive: 4.15% [signal inhibitor],–
